{"source": "the RNAGym collection of RNA variant scans (doi:10.7554/elife.90254)", "parents": {"B1": {"name": "LINE1-mini (parent)", "chain": "GGCAGAGCUCAACACAGCGUGGCAAAGUGGCUGUGGCUAGACUGCC"}}, "note": "Read counts are not given, so values of variants with three or more changes are uncertain.", "data": [{"variants_of": "B1", "assay": "self-cleavage, relative activity (ratio to wild type); higher = more cleavage; in vitro, sequencing; the parent is a self-cleaving ribozyme", "values": [{"variant": "CGCAGAGCUCAACACAGCGUGUCAAAGCGGCUGUGGCUAGACUGCC", "self-cleavage": 0.08}, {"variant": "GGCAGGGCUCAACACAGCGUGGCAAAGUGGGUGUGGCUAGACAGCC", "self-cleavage": 0.03}, {"variant": "GGCAGAACUCAACACAGAGUGGCAAGGUGGCUGUGGCUAGAUUGCC", "self-cleavage": 0.07}, {"variant": "GGCAGAACUCAACACAGCGUGGCAAUAUCGCUGUGGCUAGACUGAC", "self-cleavage": 0.02}, {"variant": "AGCAGAGCUCAACACAGCGUGGCAAACUGGCUGUGGAUAGACUGCC", "self-cleavage": 0.03}, {"variant": "GACAGACCUCAACAGAGCGUGGCAAAGUGGCUGUGGCGAGACUGCC", "self-cleavage": 0.12}, {"variant": "GGCAGAGCUCAACACAGCGUGGCAAAGUGUCUGUGGCUAUAAUGCC", "self-cleavage": 0.03}, {"variant": "GCCAGAGAUCAACACAUCGCGUCAAAGUGGCUGUGGCUAGACUGCC", "self-cleavage": 0.14}, {"variant": "GGAAGAGCUCAACAUAGCGUGGCAAAGUGGCUGUGGCUAGAGUGGC", "self-cleavage": 0.02}, {"variant": "GGCAUAGCUCAACACAGCGUGGCAAAGUGGCUGUGGUAAGACUACC", "self-cleavage": 0.06}, {"variant": "GGCAGAGUUCAUCACACCGCGGCAAAGUGGCUGUGGCUAGACUGCC", "self-cleavage": 0.06}, {"variant": "GGCAACGCUCAACACAGCGUGACAAAGUGGCUGUGGCUAGACAGCC", "self-cleavage": 0}, {"variant": "GGCAGCGCUCUACACAAUGUGUCAAAGCUGCUGUGGCUAGACUGCC", "self-cleavage": 0.02}, {"variant": "GGCAGAGCUCAAUACAGCGUGGCAAUGUGGCGGUAGCUAGACUGCC", "self-cleavage": 0.07}, {"variant": "GGGAGAGCUCAACACAGCGUGGCAAAGCGGUUGUGGCUAGACUGCC", "self-cleavage": 0.11}, {"variant": "GGUAGAGUUCAAGACAGCGUGGCAAAGUGGCUGUGGCUAGACUGCC", "self-cleavage": 0.19}, {"variant": "GGCAGAGCCCUAUACAGCGUUGCAAAGUGGCUGUGGCUAGACUGAC", "self-cleavage": 0}, {"variant": "GGCAGUGCUCAACACAGCGUGGCAAAGUGGCUGUGGCUUGUCUGCC", "self-cleavage": 0.62}, {"variant": "GGAAGAGCUCAACACAGCGGGGCAAAGUGGCUGUUGCUAGACUGCC", "self-cleavage": 0.24}, {"variant": "GGCAGAGCUCAACUCAGCGUGGCAAAAUGGCCGUGGGUAGAUUGCC", "self-cleavage": 0.13}, {"variant": "GGCAGAGCGCAACACAGAGCGGCAAAGUGGCUGUGGCUAGACUGCC", "self-cleavage": 0.05}, {"variant": "GUCAGAGCUCAACUCGGCAUGGCAAAGUGGCUGUAGCUAGACUGCC", "self-cleavage": 0.01}, {"variant": "GGCAGAGCUCAACAUAGCGUGGCACAGUGGCUGUGGCUAGACUGCA", "self-cleavage": 0.09}, {"variant": "GGCAGAGCUCAACACAACGCGGUAAAGUGGCAGUGGCUAGACUGCC", "self-cleavage": 0.03}, {"variant": "GGCAGACCUCAACACAGCGUUGCAAAGUUGCUGUGGCUAGACUGCC", "self-cleavage": 0.13}, {"variant": "GUCGGAGCUAAACAAAGCGUGUCAAUGUGGCUGUGGCUAGACUGCC", "self-cleavage": 0.02}, {"variant": "GCAAAAGCUCAACACAGCGUGGCAAAGUGGCUGUGGCUAGAGUGCC", "self-cleavage": 0.06}, {"variant": "GUCAGAGCUCAACACAGCGUGACUAAGUGGCUGUGGCUAGACUGCC", "self-cleavage": 0.04}, {"variant": "GGCAGAGUUCAACACAGCAUGGCAAAGUGGCUGUGGCUAGACUGGC", "self-cleavage": 0.06}, {"variant": "UGCAUAGCACAACACAUCGUGGCAAAGUGCCUGUGGUUAGACUGCC", "self-cleavage": 0.02}, {"variant": "GGCAGAGCUCAACGCAGCGUGGCAAAGUGGAUGUGGCUAGACAGCC", "self-cleavage": 0.12}, {"variant": "GGCAGAGUAUGACACAGCGUGGCAAAGUGGCUGUGGUUAGACUGCC", "self-cleavage": 0.04}, {"variant": "GGCAUUGCGCAACACAGCGUGGCAAAGUGUCUGUGGCUAGACUGUC", "self-cleavage": 0.12}, {"variant": "CGCCGAGCUCAACACAGCGUGGCAAAGUGGCUGUGGCUAGACCGCC", "self-cleavage": 0.04}, {"variant": "GGCAGAGCUCAAGACAACGUGGCAGAGUGGCUUUGGCUAAAAUGCC", "self-cleavage": 0.03}, {"variant": "GGCAGAGCUCAACACAGCGCGGCAAAAAGGCUGUGGAUAGACUGCC", "self-cleavage": 0.02}, {"variant": "GGUAUAGCUCAACACAGCGUGGCAAAUUGGCUGAGGCUAGACUGCC", "self-cleavage": 0.05}, {"variant": "GGUAGAACUCAACACAGCGUGGCAUAGUGGCUAUGGCUAGACUGCC", "self-cleavage": 0.09}, {"variant": "GGCAGAGCUCAACCCAGCGUGGCAAAGUGCCUGUUGCUCGACUGCC", "self-cleavage": 0.15}, {"variant": "GGCAGAACACGACACAGCGUGUCAAAGUGGCUGUGGCUAGACUGGC", "self-cleavage": 0.01}, {"variant": "GGCAGAGCUCAACACAGCGUGACACAGUGGCUGUUGCUAGACUGCC", "self-cleavage": 0}, {"variant": "GGCAGAGAUCAACACAGCGGGGCAAAUUGUCUGUGGUUAGACUGAC", "self-cleavage": 0.35}, {"variant": "UGCAGAGAUCAACACAGCGUGGCAAACUGGCUGUGGCUAGACUGCC", "self-cleavage": 0.04}, {"variant": "GGCAGACCUCAACAUAGGGUGGCAAACUGGCUGUGCCUAUACUGCC", "self-cleavage": 0.07}, {"variant": "GGCAUAGCACAACACAGCGUGGCAAAGUGGCUGUGGCUAGACUGGC", "self-cleavage": 0.04}, {"variant": "GGCAGAGCUCAACACAGCGUGGCAAAGGGGCAGUGGCUAGACAGCC", "self-cleavage": 0.01}, {"variant": "GGCAGAGGUCAACACAGCGUGUCAAAGUGGCUGUGGAUAGACUGCC", "self-cleavage": 0.07}, {"variant": "AGCAGAGCUCAAAACAGCGUGGCAAAUUGGCUGCGGCUAUACUGCC", "self-cleavage": 0.01}, {"variant": "AGCAGAGCACAACACAGCGUGGCAAAGUGGGUGUGGCUAGACUGCC", "self-cleavage": 0.36}, {"variant": "AGCAGAGCUCAAUACAGCGUGGCAAAGUUACUGUGGCUAGACAGCC", "self-cleavage": 0.03}, {"variant": "GGCAGAGCUCACGACAGCGUGGCAAAGUGGGUGUGGCUAGACUGCA", "self-cleavage": 0}, {"variant": "GGCAUAUCUCAAGACAGCGUGGCAAAGUGGCUGUGGCUAGACUGCC", "self-cleavage": 0.25}, {"variant": "GGCAGACCUCAACACAGCGUGGCAAAGCGGCUGUGGCUAGACUUCC", "self-cleavage": 0.08}, {"variant": "GUCAGAGCUCAACACAGCGUGGCAAAGUGGCUUUGACUAGACUGCC", "self-cleavage": 0.01}, {"variant": "GGCAGAGCUCAACCCAGCGUCGGAAAUUGGCUGUGGCUAGUCUGCC", "self-cleavage": 0.02}, {"variant": "GGCAGAGCUAAACACAGCGGGCCAAAGUGGCUGUGGCUAGCCUACC", "self-cleavage": 0.01}]}]}
